Some of the results follow. At the low end of the ranking, values are background and their order means little.

In this assay the target is T1, GST-Rok (full length) (UniProt O34857).
T1 sequence: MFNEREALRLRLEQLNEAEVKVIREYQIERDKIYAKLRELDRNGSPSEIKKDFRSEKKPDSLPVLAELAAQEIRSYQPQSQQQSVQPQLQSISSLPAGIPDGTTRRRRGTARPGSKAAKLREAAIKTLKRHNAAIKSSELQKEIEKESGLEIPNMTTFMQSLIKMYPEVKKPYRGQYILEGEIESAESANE
Nature of the assay: protein binding microarray.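 Further: rank score from −0.5 (least bound) to 0.5 (best bound).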 Particulars: Rok is a gene silencer of Bacillus subtilis; high values mean tight binding; most listed sequences are background and not binding sites; double strand, one strand shown.
TAAGTGGA gave a binding signal of 0.0175 E-score. TCAACGCA displayed a binding signal of -0.0585 E-score. The figure for ACTCTCGG is 0.03 E-score; for CCGCTAAC it is -0.0533 E-score; for GATAAGGA it is -0.0947 E-score. The sequence GCCTGACC showed a binding signal of -0.402 E-score. The figure for AAAGTGTT is -0.111 E-score.

AGAAGGAG showed a binding signal of -0.22 E-score. The same measure for AAACAGAT: 0.0639 E-score; for CCTTACAC: -0.0855 E-score. The same measure for ACGCATCA: -0.00899 E-score; for CAGGGGCC: -0.409 E-score; for CATACGAA: -0.0152 E-score. The figure for GCTCGGGA is -0.35 E-score; for AGTAAAGC it is 0.0185 E-score; for ACGAGGCC it is -0.266 E-score. In the case of ATTCCAAT, the binding signal came out at 0.0568 E-score.

As for ACTGCTGA, the binding signal worked out at 0.13 E-score. Take GGAGCTTA: the binding signal turned out to be 0.0465 E-score. On to GCCCTGAC, for which the binding signal was -0.215 E-score. Turning to CTCATGGA, the binding signal is -0.0591 E-score. Sequence AAGTGTGC had a binding signal of -0.0693 E-score.

For GGTGAGCA, the binding signal was -0.105 E-score. The figure for AAGACACT is 0.0454 E-score. Turning to ACAAGGTG, the binding signal is -0.3 E-score. Sequence CAAGATGC showed a binding signal of -0.122 E-score. The same measure for AGTACCTA: 0.272 E-score; for CCAGAGGA: -0.171 E-score. Consider CAAGAACC, for which the binding signal is -0.184 E-score.

With ACTGTGTG, the binding signal turned out to be 0.0734 E-score.

CACCTCTC: the binding signal is -0.197 E-score. The same measure for AAATCCGC: -0.0635 E-score.

In turn, GTACTGTA returned a binding signal of 0.155 E-score. Regarding GGATTGCC, the binding signal is -0.234 E-score. The figure for CGGATCCG is -0.109 E-score; for AGCTAAGG it is -0.0413 E-score. On to GTTCTCAA, for which the binding signal was 0.0738 E-score. Take CACATCAA: the binding signal is -0.0534 E-score.

TACGTCGA registered a binding signal of 0.183 E-score. The same measure for ACTGTCTC: -0.235 E-score; for ATAGAAAT: 0.337 E-score. The figure for ATAATGGG is 0.121 E-score; for ATGTTATA it is 0.35 E-score; for TACCACTA it is 0.239 E-score. The figure for AGGTCACT is -0.137 E-score; for GAATCCGA it is -0.084 E-score; for AACAGATC it is 0.0215 E-score. As for ACGTGGGA, the binding signal is -0.0675 E-score. The figure for AGAACAAA is -0.063 E-score.

Regarding CAGGTGTA, the binding signal was -0.026 E-score.

In turn, CTAACTCC gave a binding signal of -0.0412 E-score.

Sequence GGATATCC returned a binding signal of 0.0574 E-score.

For the sequence GTTACTCA, the binding signal is 0.185 E-score. The same measure for CGAGTCTC: -0.167 E-score; for GAGCATAA: 0.144 E-score; for ACCGCTAA: 0.0683 E-score. As for ACCACGGA, the binding signal was -0.00892 E-score. The same measure for ACCCATGG: -0.165 E-score; for CCCACGCG: -0.215 E-score; for CGGATCAG: -0.0376 E-score. The same measure for AGAACTGG: 0.000129 E-score. The same measure for CGATGTAG: 0.11 E-score; for AAGTTGTA: 0.213 E-score; for GTCTGGCA: -0.182 E-score. For ATGAAGCG, the binding signal is -0.23 E-score. Consider ATCCATAC, for which the binding signal came to 0.0643 E-score. Sequence CATTTTAG showed a binding signal of 0.0911 E-score. ACGAACGT: the binding signal is -0.103 E-score.

With GCGATGAA, the binding signal came to 0.00908 E-score.

In turn, GCATCATA registered a binding signal of 0.156 E-score. The same measure for AATGGCCG: -0.15 E-score. The same measure for ATATTGGA: 0.241 E-score; for GAATACCA: 0.0659 E-score; for AATACACC: -0.000301 E-score. The same measure for TCGAAAAA: -0.0412 E-score; for CAGTAGCA: 0.193 E-score; for ATCCCAAG: 0.0513 E-score. ATTGGTCC registered a binding signal of -0.197 E-score. The figure for AACTGCCA is -0.116 E-score. Sequence GGAAGATA yielded a binding signal of 0.153 E-score.

TCGGACCA had a binding signal of -0.0331 E-score. In the case of AGAGTCCA, the binding signal is -0.0784 E-score.

As for ACTACCTA, the binding signal stood at 0.331 E-score. The same measure for ATCATTGC: 0.131 E-score; for AGGGTTAG: -0.254 E-score; for AAGAGACT: -0.103 E-score.

With AACTGTTC, the binding signal is 0.004 E-score. In turn, TACTCGAA had a binding signal of 0.228 E-score.

As to AGGCGGAC, the binding signal was -0.278 E-score.

Sequence AAACTTAC showed a binding signal of 0.189 E-score. AATGCCTG showed a binding signal of 0.0837 E-score.

For ATGGTAGC, the binding signal was determined as 0.287 E-score. The figure for CGCTGCAC is -0.27 E-score; for CACTGAGG it is -0.226 E-score; for TACGCCCA it is -0.0998 E-score.

In the case of ATCCAGAA, the binding signal is -0.0657 E-score. Sequence ATTCACAA yielded a binding signal of 0.0886 E-score.

In turn, AAAAAGAT came in with a binding signal of 0.0439 E-score. Take ATAACTGC: the binding signal was found to be 0.185 E-score. The figure for ATCTACTC is 0.251 E-score; for TATAGGGA it is 0.0939 E-score; for ACTAGCAC it is 0.138 E-score. The figure for CGCTGACA is 0.0318 E-score. For CAACGTGA, the binding signal is -0.0485 E-score.

On to ATACTCCG, for which the binding signal amounted to 0.0778 E-score. Regarding ACATGTCT, the binding signal was -0.0723 E-score. The figure for TAAGTGCA is 0.0167 E-score; for TAAAGGCA it is -0.104 E-score; for ACGCCTAA it is -0.258 E-score. Consider CTGAGAGC, for which the binding signal was -0.268 E-score. The same measure for GGGCTACC: -0.132 E-score; for GGCGAAAC: -0.131 E-score; for ATGTGCCG: 0.0643 E-score. With CCCGGCCG, the binding signal was -0.162 E-score.

ACGGTTCA came in with a binding signal of -0.0413 E-score. The same measure for ACGCCTTA: 0.0389 E-score; for CCTCGAGC: -0.104 E-score. The same measure for ACTAAGTG: 0.0179 E-score; for ATGACAGC: 0.00198 E-score. The figure for CGGTGACC is -0.284 E-score; for CCGGAGTC it is -0.322 E-score; for ATACTGCA it is 0.298 E-score.

The sequence TACACGTA had a binding signal of 0.195 E-score.

Consider AGTCCAAC, for which the binding signal is -0.0561 E-score. For the sequence ACCTGCGC, the binding signal was -0.0461 E-score.

As to CTGTCTTC, the binding signal was -0.277 E-score.

Turning to AAAATCAG, the binding signal was determined as 0.106 E-score.

The sequence AGAGGAGG registered a binding signal of -0.296 E-score. As to ATACACAG, the binding signal came out at 0.0825 E-score.

With GCCATATA, the binding signal turned out to be 0.18 E-score. The same measure for ATGCTTTG: 0.0578 E-score. As to CGACTCAA, the binding signal turned out to be 0.0945 E-score. The same measure for GGCATACC: 0.045 E-score; for CGGTCGTA: 0.216 E-score. For TACCCTGA, the binding signal was -0.052 E-score.

As for AATACAAT, the binding signal was 0.24 E-score. The sequence GGTACCCA showed a binding signal of -0.109 E-score. Sequence AAAGAATA returned a binding signal of 0.138 E-score. As to GTGGCGAA, the binding signal is 0.00892 E-score. Sequence ATCCGCAC came in with a binding signal of -0.145 E-score.

Regarding AAATTAAG, the binding signal turned out to be 0.27 E-score.

On to CATCGCGC, for which the binding signal was -0.0288 E-score.

CATGACTC came in with a binding signal of -0.00233 E-score. The sequence ATTCGGAG returned a binding signal of 0.0824 E-score. The same measure for CAATATGC: 0.0853 E-score; for GGATTAAC: -0.112 E-score; for CGCGGTAC: -0.199 E-score. Sequence TTATGCAA returned a binding signal of 0.154 E-score. Consider TACTGCGA, for which the binding signal was -0.0297 E-score.

Take GAGGTAAC: the binding signal was -0.00277 E-score.

The sequence ACGGGGAC gave a binding signal of -0.339 E-score.

Turning to AGCTGCAC, the binding signal came to 0.104 E-score.

Turning to GCTATAAC, the binding signal worked out at 0.205 E-score. As to CGAGATCG, the binding signal was -0.00147 E-score.

For CCTTCGTC, the binding signal is -0.165 E-score. The figure for GATATCAC is 0.19 E-score. The figure for TGAGAAAA is 0.251 E-score; for AAGAAAGC it is -0.0725 E-score. CCGCTACC displayed a binding signal of -0.0157 E-score.

As for ATCCAGCG, the binding signal is -0.0768 E-score. The sequence ACACGGGT came in with a binding signal of -0.101 E-score. The sequence AGGATGAC gave a binding signal of -0.0753 E-score.

CGGGAAAC had a binding signal of -0.141 E-score. On to ACAAATCA, for which the binding signal worked out at 0.104 E-score. In turn, CTTTCATA showed a binding signal of 0.192 E-score. Take CTTTGGCC: the binding signal is -0.183 E-score. The same measure for CGATCTGC: 0.0408 E-score; for ATGTGCAA: -0.0284 E-score. The same measure for CTATGCTA: 0.169 E-score; for GCAAAAGC: -0.134 E-score.

Regarding GGTTCATA, the binding signal was found to be 0.0529 E-score. The figure for CAGAGATC is -0.124 E-score.
